# Laboratory results from PubChem BioAssay AID1240 (Sanford-Burnham Center for Chemical Genomics, 2008).
# About 800 (1.6%) of roughly 50,000 compounds showed an effect of 50% or more. The list shows a part of the results.
# Molecular target: Bcl-2-like protein 10 (Homo sapiens) (UniProt Q9HD36)
# Experiment: TR3 peptide-Bcl-B binding displacers, biochemical primary FP assay, phenotype converters (AID 1240);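 note: 0% = Bcl-B with tracer peptide and DMSO and 100% = tracer peptide lacking Bcl-B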
# Details: GST-Bcl-B / FITC-TR3 peptide fluorescence polarization; stronger effect = higher value; compound at 3.75 mg/L
# Chain of UniProt Q9HD36 (Q9HD36 whole entry, looked up): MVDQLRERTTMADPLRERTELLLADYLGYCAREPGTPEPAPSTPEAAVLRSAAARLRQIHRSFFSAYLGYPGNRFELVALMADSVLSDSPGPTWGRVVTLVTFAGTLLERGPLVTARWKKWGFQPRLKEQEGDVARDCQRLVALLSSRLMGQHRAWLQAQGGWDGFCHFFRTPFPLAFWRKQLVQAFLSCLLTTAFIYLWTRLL
row,SMILES,displacement [%]
1,O=C(c1ccc(Cl)cc1)N1CCN(c2ccc([N+](=O)[O-])c3ncccc23)CC1,4.9
2,Cc1c(N2C(=O)/C(=C/c3c(F)cccc3Cl)SC2=S)c(=O)n(-c2ccccc2)n1C,5.3
3,CCOC(=O)c1c(NC(=O)CC2Sc3ccc(C(F)(F)F)cc3NC2=O)sc(C)c1C (stereo unspecified),12.4
4,COc1ccc2c(Cl)c(C(=O)NCc3ccc4c(c3)OCO4)sc2c1,8.8
5,Cc1ccc(O)c(NC(=O)CN2C(=O)c3ccccc3C2=O)c1,-7.3
6,Cc1csc(-c2cc3ccc(OCc4c(F)c(F)c(F)c(F)c4F)cc3oc2=O)n1,6.9
7,CCN(CC)c1ccc(NC(=O)c2ccco2)cc1,5.2
8,O=C(Nc1nc(-c2ccc(F)cc2F)cs1)c1cccc(F)c1F,-0.6
9,Cc1ccc(N(CC(=O)O)S(=O)(=O)c2ccccc2)c(C)c1,-3.4
10,Cc1ccc(C(=O)NCc2ccncc2)cc1,2.5
11,CC(C)c1ccccc1OCCCCN1CCOCC1,4.4
12,CCC(=O)c1ccc(N2CCN(C(=O)c3ccc(F)cc3F)CC2)c(F)c1,-11.8
13,CC(C)(C)NC(=O)c1cc2c(ccc3ccccc32)oc1=O,-5.5
14,CC(C)OC(=O)c1c(-c2ccccc2)csc1NC(=O)c1c(F)cccc1F,-2.7
15,CCNc1nc(NCC)nc(Oc2ccc(C(=O)OC)cc2)n1,-6.4
16,Clc1ccc(Cn2nnc(-c3ccccc3Cl)n2)c(Cl)c1,-8.4
17,O=C(O)C(C(=O)O)C1c2ccccc2Oc2ccccc21,1.9
18,O=C(/C=C/c1ccc(-c2ccccc2Br)o1)c1ccc(Cl)cc1,10.4
19,O=[N+]([O-])c1ccc(NCCCN2CCOCC2)c(C(F)(F)F)c1,-1.6
20,O=C(O)CCCCCN1C(=O)C(=O)/C(=C(/O)c2ccc(Cl)cc2)C1c1ccccc1 (stereo unspecified),-0.4
21,CCOc1cc(/C=C(/C(=O)c2ccc(C)cc2)c2nc3ccccc3o2)ccc1O,12.2
22,Cc1ccc(OCCNC(=O)c2cccc3ccccc23)cc1C,13.3
23,Cc1nnc(N/N=C/c2ccc(Br)cc2)[nH]c1=O,-3.3

row,SMILES,displacement [%]
1,CCN(CC)CC#CCC(C(=O)c1ccccc1)C(=O)C(C)(C)OC (stereo unspecified),0
2,COc1ccc(C(=S)N2CCN(c3cccc(Cl)c3)CC2)cc1,19.1
3,CC(=O)c1cccc(NC(=O)CSc2nncn2C)c1,9.5
4,CCc1ccccc1N(CC(=O)O)S(C)(=O)=O,4.5
5,COc1ccc(C2Nc3ccccc3C(=O)N2Cc2ccco2)cc1COc1ccccc1F (stereo unspecified),-12.8
6,Cc1cccc(NC(=O)C(=O)NCCc2ccc(F)cc2)c1C,2.1
7,CCCNC(=O)c1c(-c2ccccc2)noc1C,4.4
8,O=C(/C=C/c1ccc(Cl)cc1)c1ccc(NC(=O)c2cccnc2)cc1,9.8
9,O=C(Nc1ccccc1C(=O)N1CCCC1)c1ccccc1,15
10,COC(=O)c1c(NC(=O)CCC2CCCC2)sc2c1CCC2,-4
11,CCOc1ccc(N2C(=O)CC(Cc3cc(C)cc(C)c3)C2=O)cc1 (stereo unspecified),13.2
12,Fc1ccc(NC(=S)Nc2ccc(Br)c(Cl)c2)cc1,-4.6
13,Cc1cc(C)c(NC(=S)NC(=O)c2ccccc2C)c(C)c1,0.8
14,NC1=NC(=O)C(Cc2ccccc2)S1 (stereo unspecified),-9.7
15,COc1ccc(C(=O)N2CCN(Cc3ccc(OC)c(OC)c3OC)CC2)cc1OC,-1.3
16,CCOc1cc(C(=O)Nc2cccc(NC(C)=O)c2)cc(OCC)c1OCC,13.2
17,O=C(CSc1ccccc1C(=O)O)c1ccc(-c2ccccc2)cc1,-9.3
18,O=C(Cc1ccccc1)Nc1ccc2nn(-c3ccc(Cl)cc3)nc2c1,10.1
19,CC(=O)NC1=NN(C(C)=O)C(c2ccc(Cl)cc2Cl)S1 (stereo unspecified),3
20,O=C(CCC1CCCC1)Nc1cccc(Cl)c1,-0.1
21,Cc1cccc(NC(=O)c2ccc(Br)o2)n1,-4.2
22,CCc1cccc(CC)c1NC(=O)c1cccc(OC)c1,-10.9
23,Cc1cccc(N2CCN(C(=O)C3C4CCC(O4)C3C(=O)O)CC2)c1C (stereo unspecified),0.3

row,SMILES,displacement [%]
1,COc1ccc(C2/C(=C(\O)c3ccc([N+](=O)[O-])cc3)C(=O)C(=O)N2CCCCCC(=O)O)cc1 (stereo unspecified),-2
2,CC(=O)Nc1ccccc1NC(=O)c1ccc(Br)cc1,8.2
3,CCc1ccc(S(=O)(=O)Nc2ccc(OC(=O)c3ccc(C)cc3)cc2)cc1,14.6
4,Cc1nonc1N=Cc1ccccc1O,10.3
5,CC1=C(C(=O)OCCc2ccccc2)C(c2ccc3c(c2)OCO3)C2=C(CC(C)(C)CC2=O)N1 (stereo unspecified),-3.8
6,COc1ccccc1P(=O)(c1ccccc1)c1ccccc1,3.8
7,CCOC(=O)/C=C/C(=O)Nc1nc(-c2ccc(C)cc2)cs1,-3.9
8,CCOC(=O)/C(C#N)=C\c1cc(OC)c(OC)cc1[N+](=O)[O-],5.7
9,Cc1ccc(/C=N/NC(=O)C2=NNC(=O)C2C)o1 (stereo unspecified),-17
10,CC(C)OC(=O)c1c(NC(=O)c2ccc(Br)o2)sc2c1CCCCC2,-8.9
11,Cc1ccc(-c2csc(N)c2C(=O)OC(C)C)cc1,-1.9
12,CCc1nc(-c2ccccc2)nc(C)c1C,16.1
13,COc1ccc(NC(=S)NC(NC(=O)c2cccc([N+](=O)[O-])c2)C(Cl)(Cl)Cl)cc1 (stereo unspecified),11.9
14,O=C(CSc1nc2ccccc2s1)NNC(=S)Nc1ccc(Cl)cc1,-8.2
15,CCOC(=O)C1=C(C)N=c2s/c(=C\c3ccc(C)cc3)c(=O)n2C1c1ccc(OC)cc1 (stereo unspecified),-6.4
16,O=C(Nc1ccc(Br)cn1)c1cc2n(n1)C(C(F)(F)F)CC(c1ccccc1)N2 (stereo unspecified),5.3
17,CN(C)CCNC(=O)COc1cccc2ccccc12,-5.3
18,O=S(=O)(Nc1cccc(I)c1)c1ccc2ccccc2c1,-0.6
19,COc1ccc(N(CC(=O)NCc2ccco2)S(=O)(=O)c2ccccc2)cc1,-4.5
20,COc1ccc(OC)c(/C=N\N2CCN(c3ccccc3OC)CC2)c1,4
21,CCN(C(=O)c1ccc(OC)cc1)c1ccccc1,0.8
22,O=C(/C=C/c1ccccc1)NNc1ccc([N+](=O)[O-])cc1,-15.2
23,O=C1NC(=S)NC(=O)C1=Cc1cccc(Cl)c1Cl,10.6

row,SMILES,displacement [%]
1,CCc1cc2c(NCCc3ccc(OC)c(OC)c3)ncnc2s1,-0.9
2,CCCC(C)NC(=O)c1ccc(-c2ccccc2)cc1 (stereo unspecified),-1.9
3,O=C(Nc1ccc(I)cc1Cl)c1cccc(Cl)c1Cl,11.2
4,COC(=O)c1c(N)sc(C)c1-c1ccc(Cl)cc1,-1.3
5,CC1=C(C(=O)Nc2ccc(Br)cc2)C(c2ccccc2)NC(=S)N1 (stereo unspecified),9.4
6,CC1(C)C(c2cccs2)=[N+]([O-])C2(CCCCC/C2=N\O)N1O (stereo unspecified),8.9
7,O=C(NC(=S)N1CCN(CCN2C(=O)c3cccc4cccc(c34)C2=O)CC1)c1ccc2c(c1)OCO2,-10.4
8,CCOc1ccc(C2/C(=C(\O)c3ccc(F)cc3)C(=O)C(=O)N2CCCCCC(=O)O)cc1 (stereo unspecified),-9.7
9,COc1ccccc1/C=C1\SC(=S)N(CCC(=O)O)C1=O,-4.9
10,Cc1onc(-c2c(Cl)cccc2Cl)c1C(=O)NCc1ccc(S(N)(=O)=O)cc1,7.1
11,COc1ccc(C2C(C(C)=O)=C(O)C(=O)N2c2nc3ccccc3s2)c(OC)c1 (stereo unspecified),9.5
12,CCOC(=O)C1=NNC(C(=O)c2ccccc2)C1c1cccc(Br)c1 (stereo unspecified),-9.5
13,COC(=O)COc1ccc2c(=O)c(Oc3ccccc3Br)c(C(F)(F)F)oc2c1,1.9
14,COc1ccc(S(=O)(=O)N2CCN(C(=O)c3cccc(F)c3)CC2)cc1,7
15,Cn1cnc2cc(Nc3nnc(-c4ccccc4)c4ccccc34)ccc21,3.5
16,COc1ccccc1C1/C(=C(/O)c2ccccc2)C(=O)C(=O)N1c1cccc([N+](=O)[O-])c1 (stereo unspecified),6.1
17,CCC(=Nc1ccccc1C)C1=C(O)CC(C)(C)CC1=O,14
18,COc1ccc(-c2cc(C(F)(F)F)n3nc(C(=O)N4CCCCC4)c(Br)c3n2)cc1,-2.1
19,Cc1ncc(C23CC4CC(CC(C4)C2)C3)[nH]1,-7.8
20,O=C1NC(=Nc2cccc(Cl)c2Cl)S/C1=C\c1ccc(F)cc1,-4.9
21,O=C(CN1CCOCC1)Nc1nc2ccccc2s1,-8
22,O=C1Nc2c(S(=O)(=O)Nc3ccc(Cl)cc3)cc(S(=O)(=O)Nc3ccc(Cl)cc3)c3cccc1c23,6.3
23,CC(C(=O)N1CCN(c2ccccc2)CC1)N1C(=O)c2ccccc2C1=O (stereo unspecified),-3

row,SMILES,displacement [%]
1,CCOC(=O)c1ccc2c(c1)C1C=CCC1C(c1cccc3ccccc13)N2 (stereo unspecified),4.6
2,Cc1ccc(C)c(NC(=O)c2cc3ccccc3oc2=O)c1,13.7
3,COc1ccc(OC)c(NC(=O)C(C)Oc2ccc(Cl)cc2Cl)c1 (stereo unspecified),-5.6
4,CCC(=O)Nc1ccc2oc(-c3ccc4ccccc4c3)nc2c1,30.8
5,O=c1oc(-c2cccs2)nc2sc3c(c12)CCCC3,9.8
6,COc1cc(C2/C(=C(\O)c3ccc(F)cc3)C(=O)C(=O)N2c2nncs2)ccc1O (stereo unspecified),8.3
7,O=Cc1cn(CCOc2ccccc2F)c2ccccc12,-15.9
8,O=C(/C=C/Nc1ccc(O)cc1)c1ccc(Br)cc1,11.6
9,CC1(C)CC(=O)C2=C(C1)N=C1c3ccccc3C(=O)C1C2c1ccc(Br)cc1 (stereo unspecified),6.5
10,O=C1NC(=S)N(c2ccccc2)C(=O)/C1=C/c1ccc(-c2ccc([N+](=O)[O-])cc2)o1,-1.5
11,CNc1nc(Nc2nc(C)cc(C)n2)nc(OCC(F)(F)F)n1,7.2
12,CCOC(=O)c1cccc(Nc2ncnc3ccc(C)cc23)c1,9.2
13,Cc1ccc(NC(=O)c2cccc(Cl)c2)cc1Cl,3.2
14,CC(=O)CC(=O)NC1C2CC3CC(C2)CC1C3 (stereo unspecified),2
15,CC(/C=N/N1C(=O)CSC1=S)=C\c1ccccc1,-21.3
16,COCCOC(=O)C1=C(C)NC2=C(C(=O)CC(C)(C)C2)C1c1ccc(Br)cc1 (stereo unspecified),11.9
17,NC(=O)C1CCN(C(=O)c2cnn(-c3ccccc3)c2NC(=O)c2cccc(F)c2)CC1,5.1
18,Cc1c(Cl)cccc1NC1C=CS(=O)(=O)C1 (stereo unspecified),14
19,Cc1cc2nc(-c3cccc(NC(=O)c4ccc(C)c([N+](=O)[O-])c4)c3)oc2cc1C,5.6
